The other results are listed elsewhere or left out.
What follows are sequences tested on PF3D7_0420300 AP2 domain 1 (GST-tagged) (assay: gcPBM binding intensity (ln(normalized median fluorescence intensity)); higher = stronger DNA binding).
How it was run: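 Using an Agilent 4 × 180k array, primer-extended double-stranded 36-bp intergenic genomic probes and negative controls were exposed for 1 h to GST-fused P. falciparum DNA-binding domains expressed in E. coli. Binding was carried out in 1× PBS with 1% milk, 0.2 mg/ml BSA, 0.5% salmon testes DNA and 0.03% Triton X-100, and protein was detected with Alexa488 anti-GST antibody and a 488 nm scan. Binding intensity is the highest Masliner-normalised natural-log median intensity across replicate spots of either probe orientation.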

| Sequence | gcPBM binding intensity (ln) |
| --- | --- |
| TTTCATCTATATGAAACACACAAAGGAAAAAAAATT [CACACA_site7869] | 9.45 |
| AGATTCAAAAATAAAACATGCAAAAATAAAACGTGC [TGCATGCA_site501] | 9.75 |
| TAATAAATGGCTAGTTGTACAGAAATATAAATATTA [XGTACX_site4579] | 9.18 |
| ATATATATAATATAATGTACATATATTTTATTTTTA [XGTACX_site3819] | 9.05 |
| AAAGCACCCAAGAATACACACAAATATTATAAAAAA [CACACA_site111] | 9.66 |
| ATATATTAATTTAATTGTACGAATAAAAAAAAAAAA [XGTACX_site223] | 9.21 |
| TATATACATTTATGTACACACACATATATGTATATT [CACACA_site8971] | 9.7 |
| ACGTATTAGATAAATACACACACAAGCATATATTTT [CACACA_site9135] | 9.8 |
| TAATGTATTATATTTAGTACATATAAAAATAATTTT [XGTACX_site6886] | 8.98 |
| ATATATATTTAAATGTGTACTCATTTATTTTATGTC [XGTACX_site4984] | 9.28 |
| TATATATATAAACACACACACACATATATATATATT [CACACA_site8814] | 10.1 |
| ATAGTATAACAGCAATGTACACATATTTGTGTATAT [XGTACX_site7899] | 9.49 |
| TGATATTTATAATAAATATTATAATAAAATCAAACA [XGTACX_negctrl_site219] | 9 |
| TTTTTTTTTTTTGTCACACATATATTTGTATTTATA [CACACA_site5234] | 9.46 |
| ATATATATTTTTATTTGTACATAATTTTTTTTGTGA [XGTACX_site6378] | 9.21 |
| ATAAAATTGTTTAAATGTACATATGAACAGTCAGTA [XGTACX_site5140] | 9.33 |
| TTTTTTTTTTTTTGCACACACATATATAGATATATA [CACACA_site7784] | 9.7 |
| ATATATGTAATAAATAGTACACACACACATATATAT [XGTACX_site2817] | 10.3 |
| TTTTTTTTTTTTTTTTGTACGTAATATATGATTAAT [XGTACX_site6876] | 8.96 |
| CATTTTATCAAAAGTGGTACAACCCTTTCAAAAAAT [XGTACX_site341] | 8.86 |
| AAATTACTTTCACAGTGTACTTGGAAAAAAAAAAGA [XGTACX_site1046] | 9.18 |
| AGATATAATAAATATACACACATATATATATATATA [CACACA_site962] | 9.31 |

| Sequence | gcPBM binding intensity (ln) |
| --- | --- |
| TAATTTTATATATGCACACAAAATATGTTCATATAA [CACACA_site4076] | 9.13 |
| TGAAAAATGTTGATGTGTACTTATATAGTGTGTTAA [XGTACX_site2100] | 9.49 |
| TTTAACATAAATTAAACACACAATATAATACATTAA [CACACA_site1237] | 9.51 |
| TTTTTTTTTAAATAATGTACTTTTCATTATTTAGAT [XGTACX_site1706] | 9.04 |
| TTTTTATTTATTAATACACACACACCCACCCACAAA [CACACA_site7965] | 10.1 |
| AAAGAAAAAAATAATTGTACATTTATATTTAATTTA [XGTACX_site8003] | 8.98 |
| AAAAAAAATTAATAGGGTACATGAAAAGTGGAATAT [XGTACX_site618] | 9.9 |
| CACATACACATACAAACACACATTAGATATAAATAT [CACACA_site6854] | 9.66 |
| ATAGAAGAAATATGCACACATACATTGAAATGTTTT [CACACA_site321] | 9.36 |
| TGAACACGCACAAATACACACAAAAAAAATAAATAA [CACACA_site6257] | 9.63 |
| CCATTAAGACACATTGCACACGTGCACCCATAGAAA [CACACA_site4388] | 9.22 |
| AAAAAAAAATTAAAAACACACATATAAATAAATATA [CACACA_site6845] | 9.52 |
| AACAAAATAGGGAACACACACATGTCAATATATAAA [CACACA_site2596] | 9.93 |
| GTTTATTTATTATAATGTACATTAGTCTGAGGAGTT [XGTACX_site4035] | 9.3 |
| TTTTATTTATATATAGTGCATATTATTATAAAACAA | 8.9 |
| CTTTTTTTCCATTAAGCATGCACATTCATATTTACT [TGCATGCA_site170] | 9.46 |
| ATATATATATATATATGTACATATGTTAATCTGCAT [XGTACX_site1068] | 9.22 |
| TATATATATATAGGTTGTACATTTTGATGTTTACGT [XGTACX_site5503] | 9.42 |
| TACTTTTTTTTTTTTTTTTTTTTTTTTTCCCTTTTT [CACACA_negctrl_site761] | 9.13 |
| TATATTTCTTATTTCTTATTTTGTCATCACCTTTTT [CACACA_negctrl_site1115] | 9.43 |
| TTACATAATATATGTACACACGCAAATACTTATAAT [CACACA_site7995] | 9.49 |
| TATAAATATGTTCTTACACACACGAATATAAATATG [CACACA_site7537] | 9.73 |
